Some of the results follow. The full chains were built here from the parent and the listed change. Values near 0.05 are background.
B1: TEV protease; numbered along this chain (parent)
chain: MGESLFKGPRDYNPISSSICHLTNESDGHTTSLYGIGFGPFIITNKHLFRRNNGTLVVQSLHGVFKVKDTTTLQQHLVDGRDMIIIRMPKDFPPFPQKLKFREPQREERICLVTTNFQTKSMSSMVSDTSCTFPSGDGIFWKHWIQTKDGQCGSPLVSTRDGFIVGIHSASNFTNTNNYFTSVPKNFMELLTNQEAQQWVSGWRLNADSVLWGGHKVFMVKPEEPFQPVKEATQL

Variants of: B1
Assay: raw area under fraction-flipped curve 0-4 h after induction (AUC4h, not background-subtracted), DNA-recorder readout of cleavage of the substrate (dimensionless); higher = more cleavage of the substrate by the protease variant
Conditions: temperature: 34 °C; time window: 0-4 h after rhamnose induction
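Note: Bxb1 expression induced with 0.2% (w/v) L-rhamnose at OD600 near 0.5, cultures sampled hourly, flipped fraction per protease–substrate barcode pair counted by paired-end Illumina sequencing.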

Row | Variant | area with substrate ENEYFQS | area with substrate ENFYFQS | area with substrate ENGYFQS | area with substrate ENHYFQS | area with substrate ENKYFQS | area with substrate ENMYFQS | area with substrate ENNYFQS | area with substrate ENRYFQS | area with substrate ENSYFQS | area with substrate ENIYFQS
1 | S171K | 0.0629 | 0.0433 | 0.0634 | 0.0601 | 0.0638 | 0.0612 | 0.02 | 0.0578 | 0.0917 | 
2 | G214W |  |  |  |  | 0.0747 |  |  | 0.0645 |  | 0.0936
3 | G214F | 0.0643 |  |  |  |  |  |  |  |  | 
4 | T174F |  |  |  |  |  |  |  | 0.0836 | 0.0727 | 
5 | T174I |  |  | 0.0744 |  |  | 0.0768 |  |  |  | 
6 | T181I | 0.079 |  |  |  |  |  |  |  | 0.0788 | 
7 | T181C |  |  | 0.0599 |  |  |  |  | 0.0652 |  | 
8 | L77R | 0.061 |  |  | 0.0704 | 0.0571 |  | 0.0531 | 0.0531 | 0.0765 | 
9 | V217E |  | 0.0514 |  |  | 0.0633 |  | 0.0704 | 0.0913 |  | 
10 | V217L |  |  |  |  |  |  |  |  | 0.0505 | 
11 | L99K | 0.0412 |  |  |  |  |  |  |  |  | 
12 | L99H |  |  |  |  |  |  |  |  | 0.0468 | 
13 | L99I |  |  | 0.0635 | 0.0586 |  |  | 0.055 | 0.0614 |  | 
14 | L99W |  |  |  |  |  |  |  |  | 0.0488 | 0.102
15 | T119L |  |  |  | 0.0476 |  | 0.0812 |  |  |  | 
16 | T119C |  |  |  |  | 0.0647 |  |  | 0.0479 | 0.0709 | 
17 | S169K |  |  |  |  |  |  |  |  | 0.0638 | 0.0438
18 | S169Y |  |  | 0.0577 |  | 0.0534 |  |  |  |  | 
19 | V220S | 0.0556 |  | 0.0655 | 0.0587 |  | 0.088 |  |  | 0.065 | 
20 | L5T | 0.0816 |  | 0.0702 |  | 0.0554 |  | 0.0724 | 0.0521 | 0.0564 | 
21 | I139T | 0.0816 |  |  |  | 0.0548 |  | 0.062 | 0.0622 |  | 
22 | T233W | 0.0715 |  | 0.0595 | 0.0184 |  |  |  |  | 0.077 | 
23 | T233P | 0.0565 |  |  | 0.0758 |  |  |  |  | 0.0686 | 
24 | T176Q |  | 0.0581 | 0.0842 | 0.0638 |  |  |  |  |  | 
25 | S135L | 0.0783 |  |  |  |  |  |  |  |  | 0.0422
26 | V200D | 0.051 |  |  |  |  |  |  |  |  | 0.0673
27 | S4A |  |  | 0.0517 |  |  |  | 0.0576 |  |  | 0.0989
28 | I84N |  | 0.0567 | 0.038 |  |  |  |  |  | 0.0989 | 

Row | Variant | area with substrate ENEYFQS | area with substrate ENFYFQS | area with substrate ENGYFQS | area with substrate ENHYFQS | area with substrate ENKYFQS | area with substrate ENMYFQS | area with substrate ENNYFQS | area with substrate ENRYFQS | area with substrate ENSYFQS | area with substrate ENIYFQS
29 | G138T |  |  | 0.0665 |  | 0.0531 |  |  |  |  | 0.0883
30 | G138P | 0.056 |  | 0.0571 |  |  | 0.0549 | 0.0484 | 0.0717 |  | 
31 | E195H | 0.0814 | 0.0661 |  | 0.0448 |  | 0.0802 |  |  |  | 
32 | L190P |  | 0.0624 |  |  |  |  | 0.0438 | 0.0467 | 0.0548 | 
33 | L190F | 0.0591 |  | 0.0486 |  |  |  |  |  | 0.0513 | 
34 | L235Y | 0.0691 |  |  | 0.041 |  |  | 0.0745 |  | 0.0568 | 0.102
35 | C131Q |  |  |  |  |  |  |  |  | 0.0427 | 
36 | C131I |  |  |  |  |  |  |  |  | 0.0739 | 
37 | C131P |  |  |  | 0.0799 |  |  |  |  |  | 
38 | Q97D |  | 0.0652 | 0.0672 |  |  |  |  |  | 0.0721 | 
39 | Q97T |  |  |  |  |  | 0.0741 |  | 0.0564 | 0.0662 | 0.106
40 | Q97L | 0.0575 | 0.0543 |  |  | 0.0818 |  |  |  | 0.0629 | 
41 | Q97G | 0.0498 |  |  |  |  |  |  |  | 0.0781 | 
42 | Q97R |  |  | 0.054 |  |  | 0.0861 |  |  |  | 
43 | G35A | 0.0487 |  | 0.038 |  |  |  |  |  |  | 
44 | H215I |  |  |  |  |  |  |  |  |  | 0.0732
45 | V58D |  |  |  |  |  |  | 0.0215 |  | 0.0564 | 
46 | V58S |  |  | 0.0321 | 0.069 |  | 0.0674 | 0.0642 |  | 0.0509 | 0.0326
47 | L61T |  | 0.0701 |  |  | 0.0699 |  |  | 0.1 | 0.055 | 
48 | S209W | 0.0343 |  | 0.0647 | 0.0401 |  |  | 0.0729 |  |  | 
49 | S209Y | 0.0556 |  |  | 0.037 |  |  |  | 0.0284 |  | 
50 | K7W |  | 0.0718 | 0.0521 |  |  |  |  |  | 0.0562 | 
51 | Q194I |  | 0.0673 | 0.0462 |  |  |  | 0.0573 | 0.07 | 0.0479 | 
52 | D128T | 0.0509 | 0.042 | 0.065 |  |  |  | 0.0423 |  | 0.0603 | 0.0847
53 | Q118C |  | 0.0568 |  |  |  |  |  |  | 0.0586 | 
54 | N177Q |  | 0.0678 |  |  |  |  | 0.0629 | 0.0515 |  | 
55 | V165I |  |  |  | 0.0824 |  | 0.0803 | 0.0496 |  |  | 0.143

Same assay, conditions: temperature: 34 °C; time window: 0-4 h after rhamnose induction

Row | Variant | area with substrate ENDYFQS | area with substrate ENQYFQS | area with substrate ENPYFQS | area with substrate ENWYFQS | area with substrate ENVYFQS | area with substrate ENYYFQS | area with substrate ENTYFQS
56 | G214F | 0.0564 |  |  |  |  |  | 
57 | T174F |  | 0.0727 |  |  |  |  | 
58 | T174I | 0.0602 |  |  |  |  |  | 
59 | T174E |  |  | 0.072 | 0.0057 |  |  | 
60 | T181I | 0.0423 | 0.0373 |  |  |  |  | 
61 | T181C |  |  |  |  | 0.0865 |  | 
62 | L77R | 0.0618 |  |  |  | 0.0426 | 0.0644 | 
63 | V217E | 0.0648 | 0.0554 |  | 0.0596 | 0.0619 |  | 
64 | V217L |  |  |  |  |  |  | 0.0694
65 | L99K |  |  |  |  |  |  | 0.0623
66 | L99I |  | 0.0508 |  |  |  |  | 0.0657
67 | L99W | 0.0741 | 0.0605 | 0.0466 |  | 0.0644 |  | 
68 | T119L |  | 0.0625 |  |  |  |  | 
69 | S169K |  |  |  |  | 0.0277 |  | 
70 | S169Y |  |  |  |  | 0.0424 |  | 0.0595
71 | V220S |  | 0.0637 |  |  | 0.0551 |  | 
72 | L5T | 0.0583 | 0.0574 | 0.0799 |  |  |  | 0.0659
73 | I139T |  | 0.0664 | 0.0605 |  | 0.0866 | 0.0422 | 
74 | T233W |  |  |  |  | 0.0736 |  | 0.0572
75 | T233P | 0.0579 | 0.0657 | 0.0421 | 0.0575 |  |  | 
76 | T176Q |  |  |  |  | 0.0563 |  | 
77 | V200D |  |  |  |  | 0.0568 |  | 
78 | S4A |  | 0.0345 | 0.084 |  | 0.0411 | 0.0705 | 
79 | I84N |  | 0.0553 |  |  | 0.0507 |  | 0.0477
80 | G138P |  |  |  | 0.0566 |  |  | 
81 | E195H | 0.0348 | 0.0632 |  |  | 0.0827 |  | 0.0522

Row | Variant | area with substrate ENDYFQS | area with substrate ENQYFQS | area with substrate ENPYFQS | area with substrate ENWYFQS | area with substrate ENVYFQS | area with substrate ENYYFQS | area with substrate ENTYFQS
82 | L190P | 0.0648 | 0.0504 |  | 0.0565 | 0.0748 | 0.065 | 0.0453
83 | L190F | 0.0519 | 0.0739 |  |  |  |  | 0.0486
84 | L235Y |  |  |  | 0.0566 |  |  | 
85 | C131I |  | 0.0596 | 0.0644 |  | 0.0811 |  | 
86 | C131P | 0.0561 |  | 0.0786 |  | 0.0896 |  | 
87 | Q97D |  | 0.0602 |  |  | 0.0661 |  | 
88 | Q97Y |  | 0.0587 |  |  |  |  | 
89 | Q97L |  | 0.0583 | 0.0592 |  |  |  | 
90 | Q97G |  |  |  |  | 0.0953 |  | 
91 | Q97R |  | 0.0666 |  |  |  |  | 
92 | G35A | 0.0516 | 0.0633 | 0.0573 |  |  |  | 
93 | H215I |  | 0.0682 | 0.0605 |  |  |  | 
94 | H215S |  | 0.0631 | 0.0504 |  |  |  | 
95 | V58D | 0.0495 |  | 0.034 | 0.0425 |  |  | 
96 | V58S | 0.0404 | 0.0531 |  | 0.0022 | 0.0384 | 0.0542 | 
97 | L61F |  |  |  | 0.0588 | 0.0712 |  | 
98 | L61T |  | 0.0509 |  |  |  |  | 0.0643
99 | S209W |  |  | 0.0622 |  |  | 0.0539 | 
100 | S209Y |  | 0.0388 |  |  |  | 0.065 | 0.0654
101 | K7W |  | 0.0616 |  |  |  |  | 0.0622
102 | Q194I | 0.0651 |  | 0.0481 |  |  | 0.0596 | 
103 | D128T |  | 0.0554 |  |  | 0.0794 |  | 
104 | Q118C |  | 0.0412 |  |  | 0.0836 |  | 
105 | N177Q |  | 0.063 | 0.0668 |  |  | 0.0662 | 
106 | V165I | 0.0725 |  |  |  |  | 0.0923 | 
